Assay results from ChEMBL document CHEMBL4888484, “Replenishing the malaria drug discovery pipeline: Screening and hit evaluation of the MMV Hit Generation Library 1 (HGL1) against asexual blood stage Plasmodium falciparum ,using a nano luciferase reporter read-out” (2022).
The campaign covered roughly 150,000 compounds. About 540 (0.36%) showed an effect of 50% or more. The list shows a part of the results.

Test system: Plasmodium falciparum
Experiment: Primary screen in NF54 nanoGlo assay, in single point, at 2uM, 72h; a lower Z score goes with more inhibition
Assay type: functional, Erythrocyte
Conditions: timepoint 72 hour

Structure (SMILES)	% Inhibition	Z score
Brc1ccc(-c2ccc(Oc3nccn4nnnc34)cc2)cc1	-10%	1.12
C[C@H]1CN(C)CCN1CCc1ccc2c(c1)CCO2	3%	-0.33
Cc1ccc(CNC(=O)c2ccc3c(c2)C(=O)N(C[C@H]2CCCO2)C3=O)s1	-5%	0.72
COc1ccc2c(c1)N(S(=O)(=O)CCC1CCC1)CCC2	-11%	1.73
O=C(Nc1nc2cccc(Cl)c2o1)c1cccc(F)c1	89%	-8.47
COCc1nc(C)c(CNC(=O)c2cc(C3CC3)no2)s1	15%	-2
CN(CCN1CCOC(C2CCCO2)C1)Cc1ccc(F)cc1 (configuration not stated)	-4%	0.46
COc1ccccc1N(C)CC(=O)N1CCC(c2ccccc2)=N1	4%	-0.47
O=S(=O)(NCCn1c(-c2ccccc2)nc2cccnc21)c1ccccc1Cl	-8%	1.07
CN1C[C@H](NC(=O)c2ccc(F)cc2F)C[C@H]1CO	-2%	0.39
COc1cccc([C@@H]2CCN2C(=O)NCC2(Cn3ccnc3C)CC2)c1	16%	-2.14
O=C(NC[C@H]1O[C@@H](CO)[C@@H](O)[C@H]1N1CCN(c2cccc(C(F)(F)F)c2)CC1)Nc1ccc(OC(F)(F)F)cc1	18%	-2.06
Cc1ccc2c(c1)CCCN2C(=O)CCc1c(C)noc1C	-7%	1.01
CCOC(=O)[C@H](CO)Nc1ncnc2onc(C)c12	1%	-0.25
Cc1ccc(-c2cccc(C(=O)NCc3cc4n(n3)CCCNC4)c2)c(C)n1	-18%	1.6
CN(C)CCNC(=O)CCc1nnc2c3cc(-c4ccc(Cl)cc4)nn3ccn12	2%	-0.22
Cc1cc(C(=O)NCCCn2ccc3cccnc32)no1	-15%	2.26
C#CCNC(=O)c1ccc(C(N)=O)nc1	-37%	4.31
Nc1c2c(-c3ccccc3)nc(NCc3ccccn3)nc2nn1Cc1ccccc1	2%	-0.21
CC(=O)N1CCC[C@](c2nnnn2CCC(C)C)(N2CCC(Cc3ccccc3)CC2)C1	2%	-0.43
CCCN1CCCn2nc(CNc3nc(C)cc(C)c3C#N)cc2C1	-1%	0.09
O=C(Cc1cnc[nH]c1=O)N1CC[C@@]2(CCCN(C3CCCC3)C2=O)C1	1%	-0.17

Structure (SMILES)	% Inhibition	Z score
Cn1cc([C@H]2CCCN(C(=O)Nc3cccs3)C2)cn1	-2%	0.31
CCCc1nnc(NC(=O)c2sc(COc3ccc(C)c(C)c3)nc2C)s1	-4%	0.73
CCC(=O)N1CCCN(C2=NS(=O)(=O)C(c3ccc(C)cc3)=C2C)CC1	-9%	1.44
O=C(NC1CCOCC1)c1ccc(Br)cn1	-14%	2
Cc1cccc(CCC(=O)N2CCN[C@H](C)C2)c1	-7%	0.96
CCN(C)C(=O)[C@H](C1CCCC1)N1CCN(C(=O)c2cccc(F)c2)CC1	-2%	0.26
CC1CCCC(C)N1C(=O)c1cc2c([nH]c1=O)CCCC2=O (configuration not stated)	1%	-0.13
O=C(NC1CCC(N2C(=O)CCC2=O)CC1)C1CC1C1CCCCC1 (configuration not stated)	-7%	0.72
CCCCN(CCO)CC(=O)NC1CCCC1	-8%	1.04
O=C(NC1CCN(c2ccccc2C(=O)N2CCOCC2)CC1)c1ccco1	-7%	1.29
C[C@H]1CCCCN1c1ncnc2onc(-c3cc(F)cc(F)c3)c12	0%	-0.02
O=C(CN(C(=O)C1CC2CCC1O2)C1CC1)NC1CC1 (configuration not stated)	3%	-0.42
Cc1cc(F)ccc1N1CCC[C@H](NC(=O)c2csnc2C)C1=O	39%	-5.25
N#CCCN(CC1CC1)S(=O)(=O)Cc1ccon1	-1%	0.12
COc1ccc(CN2C[C@H]3CC[C@@H](O)[C@H]3C2)c(OC)c1	7%	-0.69
N#Cc1ccccc1CN1CCN(CCO)[C@@H]2CS(=O)(=O)C[C@@H]21	-12%	1.91
O=C(NCCc1cccnc1)c1cn2c(n1)[C@@H](c1ccccc1)N(C(=O)Cc1cccnc1)CC2	-2%	0.33
CCn1cc(CN2CCC[C@@](F)(C(=O)NCC3CC3)C2)c(C)n1	-20%	1.79
Cc1cccc(NC(=O)N(C)CCO)c1Br	-6%	0.86
CCN(Cc1noc(C2CC2)n1)Cc1nc(-c2ccccc2)cs1	-13%	1.67
COCCNC(=O)c1coc(CN2C(=O)COc3ccc(C(=O)COc4ccccc4)cc32)n1	-6%	0.84
CCCNC(=O)c1cc2c(=O)[nH]c(C)cn2n1	-8%	1.04

Structure (SMILES)	% Inhibition	Z score
O=C(CCS(=O)(=O)c1ccccc1)N1CCC(c2cccs2)CC1	-7%	1.03
CC1CCC(NC(=O)c2ccc3ncsc3c2)CC1 (configuration not stated)	7%	-1.06
c1ccc2c(c1)Cc1ccc(-c3csc(Nc4ccc5c(c4)OCCO5)n3)cc1-2	-8%	1.08
CC(C)c1nnc(CCC(=O)N2CC[C@H]2c2cccc(F)c2)o1	5%	-0.94
CC1=C(C(=O)NCc2cnn(C)c2)OCCO1	-15%	1.85
O=C(NC(Cn1cccn1)c1ccccc1)C1CCCn2ncnc21 (configuration not stated)	-8%	0.98
O=S(=O)(Nc1cc(O)ccc1Cl)c1cnn2c1OCCC2	-2%	0.18
Cc1ccc(CN(CC(=O)NC2CC2)Cc2ccccn2)o1	2%	-0.23
O=C(NCc1cncc(-c2cccs2)c1)c1ccccn1	5%	-0.69
O=C(NCc1c(F)cccc1F)c1ccc(OCc2nc(C3CC3)cs2)cc1	-21%	4.02
Cc1noc(-c2ccco2)c1C(=O)NCc1ccncc1	-3%	0.27
CC[C@H](CO)NC(=O)NCc1cc(Cl)sc1Cl	-1%	0.19
C[C@@H](c1ccc(F)cc1)N(C)S(=O)(=O)CCOCC1CC1	2%	-0.24
CCC(CC)c1cc(C(=O)N2CC3CN(Cc4ccccc4)CC3C2)on1 (configuration not stated)	-5%	0.55
CN1C[C@H](CNC(=O)c2cn(Cc3cccc(F)c3)nn2)[C@@H](c2ccccc2)C1	-4%	0.46
O=C(NCCN1CCC(CO)CC1)c1ccncc1Cl	2%	-0.21
CCN(CC)c1ccc(C(=O)N2CCN(c3ccccc3C)C(=O)C2)cc1	7%	-0.96
COCCc1noc(CCCN2C(=O)c3ccccc3C2=O)n1	-11%	1.45
Cc1c(-c2cccc(C(=O)NCC[C@H]3CCOC3)c2)c(C(F)(F)F)nn1C	0%	0.02
C[C@H]1CCCN(CCCNC(=O)CCC(=O)N2Cc3ccccc3Oc3ncccc32)C1	3%	-0.36
Cc1nc2ccccc2n1-c1nccc(N(C)C)n1	5%	-0.58
Cc1noc(C)c1C(=O)N1CC(N2C(=O)C3CC=CCC3C2=O)C1 (configuration not stated)	17%	-1.94

Structure (SMILES)	% Inhibition	Z score
COc1ccc(CNC(=O)c2c(-c3ccccc3)nnc3ccc(C)cc23)cc1	-4%	0.49
c1ccc(C[C@H](c2ccccc2)c2nc3ccccc3o2)cc1	-40%	4.68
O=C(Cc1ccccc1Cl)N1CC(Cc2nncn2CC2CC2)C1	-4%	0.71
CN1CCCC(N(C)C(=O)c2ccc(NC(=O)C3CCOC3)cc2)C1 (configuration not stated)	-5%	0.61
CCc1c(C)nc(-c2cccc(C)c2)nc1N1CCN(C(=O)c2ccc(Cl)c(Cl)c2)CC1	-5%	0.52
O=C1CCN(C(=O)c2ccccc2Nc2cccc(C(F)(F)F)c2)CCN1	-5%	0.92
COC(=O)c1c(NC(C)=O)c2cc(NC3CCCCCC3)cnc2n1CCc1c[nH]c2ccccc12	12%	-2.21
CNC(=O)c1ccc(OCc2nc(C(C)C)ns2)cc1	32%	-3.57
CCOc1ccc(NS(=O)(=O)c2ccc3c(c2)OCCO3)cc1S(=O)(=O)N1CCCCC1	-9%	1.26
Cn1cnc(CCNC(=O)C2CCC(C)(C)CC2)n1	4%	-0.62
O=C(c1ccc[n+]([O-])c1)N(CCc1ccccc1)C1CCCC1	-14%	1.52
COCCOC(=O)N1CCCC[C@H](NC(=O)CCC(F)(F)F)C1	-7%	0.91
O=C(NC1CC1C1CCCCC1)c1cn(CC(=O)N2CCCC2)nn1 (configuration not stated)	-3%	0.26
O=S(=O)(c1ccc2c(c1)CCCC2)N1CCNCC1	-23%	1.92
CCc1nccn1Cc1nc(CCOC)no1	-18%	1.57
Cc1cc(C)n(CC2(CNC(=O)Nc3ccc4c(c3)COC4=O)CC2)n1	-10%	1.34
Cc1nnc(CNC(=O)[C@]2(C)COc3ccccc3O2)n1C1CC1	-4%	0.75
O=C(CN1CC(=O)NC1=O)NCC1(c2cccc(F)c2)CCCCC1	-15%	1.23
CCCc1nnc(NCCCN2CCOCC2)o1	-3%	0.49
COCCOc1cc(Cn2nc(C)cc2C)ccn1	-2%	0.34
